Consider 100 molecules from article PMC6919601, “Identification of Plasmodium dipeptidyl aminopeptidase allosteric inhibitors by high throughput screening” (PLoS ONE, 2019).

Values joined by “and” are separate entries in the source; they are usually repeats but may differ in a detail not shown here. Equal entries are not always repeated. Out of some 110,000 compounds screened, about 230 (0.21%) showed an effect of 50% or more. Some of the results follow.
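Also: 30 min substrate incubation versus DMSO and 10 µM JCP410 controls.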

For this assay, the target named is DPAP1 (Plasmodium falciparum, UniProt Q8IIJ9). Description: primary screen, percent inhibition; read by cleavage of a fluorogenic dipeptide substrate; higher = more effect of the substance. The arrangement: species or system P. falciparum D10 trophozoite lysates; single well.
DPAP1, sequence (Q8IIJ9 whole entry, looked up): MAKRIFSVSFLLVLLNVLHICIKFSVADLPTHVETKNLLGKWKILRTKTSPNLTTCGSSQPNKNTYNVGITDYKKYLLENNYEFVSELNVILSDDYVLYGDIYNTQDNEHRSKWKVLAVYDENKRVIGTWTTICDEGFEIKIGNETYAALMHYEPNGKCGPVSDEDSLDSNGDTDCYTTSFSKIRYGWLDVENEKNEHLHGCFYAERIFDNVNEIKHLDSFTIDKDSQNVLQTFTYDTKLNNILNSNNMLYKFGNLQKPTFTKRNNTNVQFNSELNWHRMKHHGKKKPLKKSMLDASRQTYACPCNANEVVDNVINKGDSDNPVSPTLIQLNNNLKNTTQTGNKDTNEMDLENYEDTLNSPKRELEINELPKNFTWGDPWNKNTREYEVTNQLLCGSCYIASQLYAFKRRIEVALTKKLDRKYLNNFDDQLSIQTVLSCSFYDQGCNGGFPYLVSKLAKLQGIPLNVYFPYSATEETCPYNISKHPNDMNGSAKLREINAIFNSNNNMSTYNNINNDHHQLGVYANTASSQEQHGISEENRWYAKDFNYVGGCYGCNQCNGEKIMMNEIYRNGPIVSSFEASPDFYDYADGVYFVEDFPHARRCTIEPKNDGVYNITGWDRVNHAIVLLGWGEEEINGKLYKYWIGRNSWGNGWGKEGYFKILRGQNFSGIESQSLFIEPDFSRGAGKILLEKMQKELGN
For `OC1COC(Oc2ccccc2)C(O)C1O` (stereo not shown), the “% Inhibition @ 10 uM” value is 4.54%.
The figure for `Oc1nnnc2sc(-c3ccccc3)cc12` is 7.04%; for `Cc1ccc(CNC(=O)Cn2ncn3c(c(-n4cccc4)c4c5c(sc43)CCCC5)c2=O)cc1` it is -3.34%; for `CCN(CC)CCCNCc1cccc(OC)c1` it is -3.12%.
The figure for `CCOC(=O)c1c(C)[nH]c(C)c1S(=O)(=O)N(C)CC(=O)Nc1ccc(C)cn1` is -4.17%; for `CN(C)c1nc(NCCOC23CC4CC(CC(C4)C2)C3)nc(OCC(F)(F)F)n1` it is -1.82%; for `CCOc1ccc(NC(=O)CCC(=O)c2ccc(C)cc2)cc1` it is -5.57%.
The figure for `COC(=O)c1c(C)oc2ccc(O)c(CN3CCCCC3C)c12` (stereo not shown) is -4.82%.
As to `O=c1c(-c2ccccc2)c(O)nc2ccccn12`, the “% Inhibition @ 10 uM” value was -0.999%.
The figure for `Cc1ccc(-n2ncc(C(=O)N3CCCC3)c2C2CCN(C(=O)OC(C)(C)C)CC2)cc1C` is 1.23%; for `COc1ccc(CC(=O)Nc2cccc(C(=O)Nc3ccccc3C(=O)O)c2)cc1OC` it is 2.44%.
The figure for `N#Cc1ccccc1CSc1nc2ncccc2o1` is 1.97%; for `CC(C)C[C@H](NC(=O)c1ccc(-c2ccccc2Cl)s1)C(=O)NCC#N` it is -1.82%; for `COc1cc(/C=C2/SC(=O)N(CC(=O)Nc3ccccc3)C2=O)ccc1O` it is 11.1%.
Turning to `CCOC(=O)c1[nH]c2ccccc2c1CC#N`, the “% Inhibition @ 10 uM” value is on record as -3%.
The value for `C=CCOc1ccc(C(=O)Nc2nonc2-c2ccc(OC)c(OC)c2)cc1` was 5.43%; that for `CNC(=O)COc1ccccc1C(=O)Nc1ccc(Oc2ccc(Cl)cc2)cc1` was -0.545%; that for `Cc1oc2ccc(O)c(CN(C)C)c2c1C(=O)OCCc1ccccc1` was 0.486%.
The value for `CC(C)=CCCC1(C)NC(=O)NC1=O` (stereo not shown) was 1.05%; that for `COc1cccc(CN2CCN(Cc3cc(OC)c(OC)c(OC)c3)CC2)c1` was -2.6%.
The value for `O=C(NCC1CCCO1)C1c2ccccc2C(=O)N1Cc1ccc2c(c1)OCO2` (stereo not shown) was 2.93%; that for `Nc1nc(O)c2nc(N3CCCCC3)n([C@@H]3O[C@H](CO)[C@@H](O)[C@H]3O)c2n1` was 0.221%.
Take `COc1cc(C2(c3ccc(O)c(OC)c3)C(=O)N(C)c3ccc(Br)cc32)ccc1O`: the “% Inhibition @ 10 uM” value is on record as -1.49%.
The figure for `Cc1ccc(-c2cc(C(=O)Nc3ccc4c(c3)OCCO4)c3ccccc3n2)o1` is -7.08%; for `Cc1ccc(C)c(OCC(=O)NC2CC(C)(C)NC(C)(C)C2)c1` it is -4.93%; for `O=C(NCc1cccs1)C1CCN(S(=O)(=O)c2cccc3cccnc23)CC1` it is 0.208%.
As for `CC(C)OP(C)(=O)CN1CCN(CP(C)(=O)OC(C)C)CC1` (stereo not shown), the “% Inhibition @ 10 uM” value is on record as -7.15%.
The figure for `N#CC1=C(N)Oc2[nH]nc(-c3cccs3)c2C1c1ccc(Cl)c(Cl)c1` (stereo not shown) is -4.12%; for `O=C(O)Cc1ccc(NC(=O)c2ccccc2[N+](=O)[O-])cc1` it is 4.54%; for `O=c1cc(CSc2nc3ncccc3o2)nc2ccccn12` it is -2.41%.
The value for `CCC(O)(c1ccccc1)C(CN1CCOCC1)c1ccccc1` (stereo not shown) was 1.12%; that for `Cc1nn(-c2ccccc2)c(O)c1/C=N/c1ccc(S(=O)(=O)N2CCOCC2)cc1` was 16.1%; that for `COc1cc(C(=O)Nc2ccc3c(c2)OCCO3)ccc1OC(F)F` was -1.89%.
For the molecule `CCc1nn(Cc2ccccc2F)c(=O)c2cc3cc(C)ccc3n12`, the “% Inhibition @ 10 uM” value is 3%.
The figure for `O=C(NCCCN1CCOCC1)c1nnc(-c2ccc3c(c2)OCO3)o1` is -2.58%; for `CC(=O)OC12CC3CC(C1)C(=O)C(C3)C2` it is 0.526%; for `COc1ccc2cc(S(=O)(=O)c3ccc(C(C)(C)C)cc3)c(=O)oc2c1` it is 0.44%.
The value for `COCCNC(=O)c1onc(C)c1Cl` was -0.0115%; that for `COc1cccc(NC2=C(Cl)C(=O)N(c3ccccc3C)C2=O)c1` was 2.08%; that for `Cc1cc(C(F)(F)F)nn1CC(=O)NCc1ccccc1` was -6.39%.
The figure for `CC1(C)CC(=O)C2=C(C1)N1C(=C(C#N)C2c2cccnc2)NC(=O)c2c1sc1c2CCCC1` (stereo not shown) is -4.12%; for `Cc1cc(C)nc(NC(=O)NS(=O)(=O)N2CCCCCC2)n1` it is -9.91%; for `O=C(Cc1c(O)nc2ccccc2c1O)NCc1ccncc1` it is 0.219%.
Take `O=C(O)c1ccccc1C(=O)NCc1ccccc1`: the “% Inhibition @ 10 uM” value came to 3.06%.
The figure for `COc1ccc(C(=O)N2CCN(C(=O)c3ccc(OC)c(OC)c3)CC2)cc1OC` is -4.86%.
The figure for `COc1ccc(OC)c(S(=O)(=O)n2nc(-c3ccc(Cl)cc3)cc2N)c1` is -1.08%.
The value for `CC(C)c1ccc(-c2c(N3CCN(c4ccccn4)CC3)c(=O)c2=O)cc1` was -2.28%.
In the case of `O=C(COCc1cc(-c2ccco2)on1)NCCN1CCOCC1`, the “% Inhibition @ 10 uM” value was 3.87%.
The figure for `CCOC(=O)C1C(=O)C=C(N2CCOCC2)CC1c1ccccc1` (stereo not shown) is -1.15%; for `Cc1ccc(NC(=O)Nc2ccc(Cl)cc2)cc1F` it is 1.13%; for `CCOc1ccc(C(CC(=O)O)NC(=O)c2ccco2)cc1` (stereo not shown) it is 6.51%.
The value for `Cc1cccc2c1nc1s/c(=C/c3c[nH]nc3-c3ccccc3)c(=O)n12` was 17.9%.
The figure for `CC(=O)Nc1ccc(-c2cc(-c3ccc(NC(C)=O)cc3)ncn2)cc1` is 0.937%; for `NC(=O)CSc1nc2nccnc2c(=O)n1Cc1ccccc1Cl` it is -8%; for `C=CCN1C(=O)C2(C(C#N)=C(N)OC3=C2C(=O)CC(C)(C)C3)c2ccccc21` (stereo not shown) it is -4.41%.
Take `Cc1ccc(NC(=O)c2ccc(CSc3ncnc4[nH]cnc34)cc2)c(C)c1`: the “% Inhibition @ 10 uM” value is 0.843%.
`COc1ccc(C(=O)Nc2ccc3c4c(cccc24)CC3)cc1`: the “% Inhibition @ 10 uM” value worked out at 2.22%.
The value for `Cc1ccc(S(=O)(=O)c2nnn3c2nc(NCCc2c[nH]c4ccccc24)c2ccccc23)cc1` was -1.37%; that for `COc1ccc(C(=O)Nc2ccc(C)cc2)cc1` was -8.49%.
The value for `COc1ccc(/C=C/c2nc3ccccc3c3ccccc23)cc1` was -1.05%; that for `CCCc1cc(O)nc(SCc2cccc(C)c2)n1` was -6.69%.
The figure for `CCOc1ccc(C(C)NC(=O)Cc2ccccc2)cc1OCC` (stereo not shown) is -1.5%; for `CN(C)c1ccc(Nc2nc(-c3ccncc3)cs2)cc1` it is -2.48%; for `COc1cc(/C=c2\sc3nc(-c4ccncc4)nn3c2=O)ccc1OCCC(C)C` it is 0.487%.
Regarding `O=C(O)c1cccc(NC(=O)c2cccc(S(=O)(=O)Nc3ccc(Cl)cc3)c2)c1`, the “% Inhibition @ 10 uM” value is -1.96%.
For the molecule `CC(C)(C)NS(=O)(=O)c1ccc(NC(=O)COc2ccccc2Cl)cc1`, the “% Inhibition @ 10 uM” value turned out to be 2.95%.
The value for `O=C(CSc1nnnn1Cc1ccccc1)NCc1cc(C(=O)c2ccccc2)ccc1O` was -1.85%; that for `Cc1cc2c(c(S)n1)C(=O)O/C2=C\c1c[nH]nc1-c1ccc(F)cc1` was 26%.
As to `CCN1CCN(CC(O)COc2ccccc2C(C)(C)C)CC1` (stereo not shown), the “% Inhibition @ 10 uM” value was found to be 2.65%.
The figure for `COc1ccc(C(=O)N/C(=C\c2cccc3ccccc23)C(=O)Nc2ccccc2OC)cc1` is -4.76%; for `COc1ccc(C(=O)Nc2ccc(S(=O)(=O)N3CCc4ccccc43)cc2)cc1` it is -1.04%; for `O=S(=O)(c1ccc(-c2ccc(O)nn2)s1)N1CCN(C2CCCCC2)CC1` it is 3.43%.
Take `Cc1cccc(C2C=C(c3ccc(Br)s3)Nc3ncnn32)c1` (stereo not shown): the “% Inhibition @ 10 uM” value is -0.125%.
The value for `CN1CCN(c2ccc(NC(=O)CC34CC5CC(CC(C5)C3)C4)cc2)CC1` was 2.01%; that for `O=C1CC(Sc2ccccn2)C(=O)N1c1ccc(F)cc1F` (stereo not shown) was 2.38%.
The value for `COc1ccc(S(=O)(=O)NCCc2nnc3ccc(SCc4cc(C)ccc4C)nn23)cc1` was 3.8%; that for `CCCCCOc1ccc(C2c3c(-c4ccccc4O)n[nH]c3C(=O)N2CCOC)cc1OC` (stereo not shown) was 3.62%.
The figure for `C/N=C1\S/C(=C\c2cc(OC)c(N3CCCC3)cc2OC)C(=O)N1C` is -11.7%.
With `CCN(CC)CCCCOc1ccccc1`, the “% Inhibition @ 10 uM” value stood at 5.85%.
The figure for `CC1C(c2ccccc2)NC(c2ccccc2)CC1(O)c1ccc(F)cc1` (stereo not shown) is -0.13%; for `COc1ccccc1C1C(C(C)=O)=C(O)C(=O)N1c1nc2ccccc2s1` (stereo not shown) it is -1.93%.
For the molecule `C/C=C/Cn1c(N2CCCCC2)nc2c1c(=O)[nH]c(=O)n2C`, the “% Inhibition @ 10 uM” value is recorded as -9.24%.
`Sc1nnc(-c2cccs2)n1Cc1ccc2c(c1)OCO2`: the “% Inhibition @ 10 uM” value turned out to be 1.96%.
In the case of `COc1ccc(Br)cc1C(=O)Nc1cc(Cl)ccc1C(=O)O`, the “% Inhibition @ 10 uM” value is listed as -3.45%.
The figure for `CC1(C)CC(=O)C(/C=N/CCCN2CCCC2=O)=C(O)C1` is -6.69% and 2.01%; for `O=C(NCCN1CCOCC1)c1ccc(-n2c(-c3ccccc3)cc3c2CCCC3)cc1` it is -2.58%; for `O=C(O)C1C2CCC(C2)C1C(=O)Nc1ccc(Oc2ccc(Cl)cc2)cc1` (stereo not shown) it is -4.39%.
The figure for `CN1CCN(Cc2ccc(F)c(F)c2)CC1` is 1.63%.
The figure for `NC1CCCc2c1[nH]c1ccc(Br)cc21` (stereo not shown) is -5.61%; for `COCCNC(=O)C1CCN(c2ncnc3c2sc2cccc(F)c23)CC1` it is 0.828%.
On to `CC(=O)NC1(c2ccccc2)CCN(C)C(c2ccccc2)C1C` (stereo not shown), for which the “% Inhibition @ 10 uM” value is recorded as -4.35%.
As for `CSc1ncc(C(=O)NCCCc2ccccc2)c(-c2ccccc2)n1`, the “% Inhibition @ 10 uM” value was 6.46%.
The figure for `Cc1ccc(-c2cc(-c3ccccc3)nc(-n3nc(C)cc3C)n2)cc1` is 4.63%.
The value for `O=C1CC(N2CCN(S(=O)(=O)c3ccccc3)CC2)C(=O)N1c1ccccc1` (stereo not shown) was -0.988%; that for `O=C(Cc1nnc(-c2ccc(Br)cc2)o1)NCCc1c[nH]c2ccccc12` was -3.57%; that for `NS(=O)(=O)c1ccc(NC(=O)COc2ccc(Cl)cc2Br)cc1` was -1.89%.
The figure for `CCC(C)NC(=O)c1cc2c(O)nc3ccc(C)cc3c2s1` (stereo not shown) is 7.39%; for `Cc1ccsc1CN(C(=O)COc1ccc(C(C)C)cc1)C1CCS(=O)(=O)C1` (stereo not shown) it is 2.19%; for `CCOC(=O)c1c(NC(=O)c2nc3ncccn3n2)sc2c1CCC(CC)C2` (stereo not shown) it is 3.35%.
With `COc1cccc(CNCc2ccc(C(=O)O)s2)c1OC`, the “% Inhibition @ 10 uM” value worked out at 4.79%.
